Source: publication PMC3115558 (Biochemistry, 2011)

Molecular target: PP1α catalytic subunit (New England BioLabs) (UniProt P62139)
Test: SPR

Sequence of UniProt P62139 (P62139 whole entry): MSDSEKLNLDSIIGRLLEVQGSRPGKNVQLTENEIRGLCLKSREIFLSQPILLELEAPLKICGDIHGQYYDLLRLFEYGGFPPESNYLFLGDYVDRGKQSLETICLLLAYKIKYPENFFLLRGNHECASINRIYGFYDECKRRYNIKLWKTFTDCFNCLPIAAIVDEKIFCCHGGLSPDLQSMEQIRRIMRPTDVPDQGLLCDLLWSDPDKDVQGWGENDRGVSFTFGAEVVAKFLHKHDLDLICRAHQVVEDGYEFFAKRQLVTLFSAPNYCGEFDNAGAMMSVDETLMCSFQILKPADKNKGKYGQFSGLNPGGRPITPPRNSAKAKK

Kd: 103 nM
kon: 288000 M⁻¹ s⁻¹
B1: AKAP79 […] (PP1 binding site deletion), S-tagged (domain or fragment)
chain: not shown
